Molecules are shown by their SMILES. Among all 310,000 compounds or so, about 2,200 (0.71%) showed an effect of 50% or more. Effects have a minus sign here. The list shows a part of the results.

Chain of human ether-à-go-go-related gene (hERG) potassium channel (Q12809 whole entry, looked up): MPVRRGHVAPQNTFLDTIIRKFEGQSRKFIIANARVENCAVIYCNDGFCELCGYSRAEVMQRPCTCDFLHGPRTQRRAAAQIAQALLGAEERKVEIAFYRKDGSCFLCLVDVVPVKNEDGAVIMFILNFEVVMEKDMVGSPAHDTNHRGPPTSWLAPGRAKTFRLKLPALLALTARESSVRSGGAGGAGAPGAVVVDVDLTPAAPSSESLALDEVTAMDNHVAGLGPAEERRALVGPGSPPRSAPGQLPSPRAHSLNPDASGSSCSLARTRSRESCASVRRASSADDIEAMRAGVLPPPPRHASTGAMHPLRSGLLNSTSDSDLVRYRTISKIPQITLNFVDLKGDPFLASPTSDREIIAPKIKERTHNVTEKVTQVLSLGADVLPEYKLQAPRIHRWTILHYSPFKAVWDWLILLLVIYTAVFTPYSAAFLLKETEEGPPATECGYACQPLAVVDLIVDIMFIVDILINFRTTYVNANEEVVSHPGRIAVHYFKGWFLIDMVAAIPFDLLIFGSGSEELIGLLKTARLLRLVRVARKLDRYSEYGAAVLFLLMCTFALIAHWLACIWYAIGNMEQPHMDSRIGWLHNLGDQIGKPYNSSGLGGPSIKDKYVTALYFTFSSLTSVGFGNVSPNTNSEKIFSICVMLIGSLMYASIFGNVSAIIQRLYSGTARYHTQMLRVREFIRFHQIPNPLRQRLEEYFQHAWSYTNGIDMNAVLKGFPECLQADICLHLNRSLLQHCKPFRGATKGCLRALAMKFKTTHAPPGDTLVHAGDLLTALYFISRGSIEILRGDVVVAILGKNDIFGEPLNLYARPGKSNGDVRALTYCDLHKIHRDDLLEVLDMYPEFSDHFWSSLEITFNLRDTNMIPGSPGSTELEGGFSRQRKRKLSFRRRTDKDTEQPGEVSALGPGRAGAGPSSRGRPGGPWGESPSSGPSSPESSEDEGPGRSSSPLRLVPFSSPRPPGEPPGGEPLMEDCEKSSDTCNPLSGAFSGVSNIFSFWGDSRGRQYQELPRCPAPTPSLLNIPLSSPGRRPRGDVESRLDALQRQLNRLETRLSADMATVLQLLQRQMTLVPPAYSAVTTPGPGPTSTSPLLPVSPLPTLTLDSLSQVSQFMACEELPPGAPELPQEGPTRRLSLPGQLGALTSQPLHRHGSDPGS

The assay addresses human ether-à-go-go-related gene (hERG) potassium channel (human, UniProt Q12809). Description: primary screen, population patch clamp on CHO cells stably expressing hERG.
For the compound `O=C1COc2ccc(C(=O)COC(=O)Cn3cnc4ccccc43)cc2N1`, the “hERG current change (%, negative = inhibition) at 1uM” value was determined as 2.28%.

As for `Cn1c(=O)oc2cc(S(=O)(=O)NCCC(=O)NCc3ccc(F)cc3)ccc21`, the “hERG current change (%, negative = inhibition) at 1uM” value is reported as 10.6%.

Take `CCCCc1nn(-c2cc(Cl)ccc2OC)c2c1C(=O)CCC2`: the “hERG current change (%, negative = inhibition) at 1uM” value is recorded as 12.2%.

Regarding `COc1ccc2cc3cc(C(=O)N(C)C4CCCCC4)oc3nc2c1`, the “hERG current change (%, negative = inhibition) at 1uM” value is listed as 16.1%.

For `CCOc1ccccc1/C=C(/NC(=O)c1ccccc1)C(=O)NCC(=O)O`, the “hERG current change (%, negative = inhibition) at 1uM” value came to 6.66%.

With `COCCNC(=O)CSc1c2c(nc3ccc(Cl)cc13)CCCC2`, the “hERG current change (%, negative = inhibition) at 1uM” value is listed as 5.17%.

On to `CCOC(=O)C1=C(O)/C(=C\c2cc(C)n(-c3ccccc3F)c2C)N=C1C`, for which the “hERG current change (%, negative = inhibition) at 1uM” value is given as 16.6%.

As for `O=C(COC(=O)Cc1n[nH]c(=O)c2ccccc12)Nc1cccc(C(F)(F)F)c1`, the “hERG current change (%, negative = inhibition) at 1uM” value is listed as 4.01%.

For `CCC1CCCCN1C(=O)CSc1nnc(CNC(=O)c2c(F)cccc2Cl)o1` (stereo not drawn), the “hERG current change (%, negative = inhibition) at 1uM” value stood at 19.8%.

For `Cc1ccc(-c2[nH]ncc2/C=N/n2c(C)nc3ccccc3c2=O)cc1`, the “hERG current change (%, negative = inhibition) at 1uM” value is 15.2%.

As to `CCCCNC(=S)N/N=C/c1cccc(OCC)c1O`, the “hERG current change (%, negative = inhibition) at 1uM” value is 9.58%.

Regarding `COc1ccc(C(CNC(=O)C(=O)Nc2ccc3c(c2)OCCO3)N2CCN(C)CC2)cc1` (stereo not drawn), the “hERG current change (%, negative = inhibition) at 1uM” value was -5.01%.

Turning to `CCOc1ccc(S(=O)(=O)N/N=C(\C)c2ccc(OC)cc2OC)cc1`, the “hERG current change (%, negative = inhibition) at 1uM” value is recorded as -1.53%.

With `CSCCC(NC(=O)OC(C)(C)C)C(=O)Oc1ccc2c(=O)c(-c3ccc4c(c3)OCCO4)coc2c1` (stereo not drawn), the “hERG current change (%, negative = inhibition) at 1uM” value came to 4.95%.

Regarding `CC1=NN(C(=O)c2ccccc2Br)C(O)(c2ccc(Cl)cc2)C1` (stereo not drawn), the “hERG current change (%, negative = inhibition) at 1uM” value came to 16.7%.

In the case of `O=C1CC(C(=O)Nc2nccs2)C(c2ccccc2)O1` (stereo not drawn), the “hERG current change (%, negative = inhibition) at 1uM” value is given as -5.28%.

For the compound `CCc1nnc(NC(=O)C2CC(=O)N(CCc3ccccc3)C2)s1` (stereo not drawn), the “hERG current change (%, negative = inhibition) at 1uM” value is 15.1%.

For `CC(=O)c1cc(Cl)ccc1OCC(=O)Nc1cccc(S(=O)(=O)N2CCCC2)c1`, the “hERG current change (%, negative = inhibition) at 1uM” value is given as 13%.

For the compound `CCOc1ccc(NC(=S)Nc2cccnc2)cc1`, the “hERG current change (%, negative = inhibition) at 1uM” value was 11.4%.

For `CC(=O)N(c1ccccc1)c1c(F)c(F)c(F)c(F)c1F`, the “hERG current change (%, negative = inhibition) at 1uM” value was 10.7%.

For the compound `COc1ccc(/C=C2/N=C(SC3CCOC3=O)N(c3cccc(OC)c3)C2=O)cc1` (stereo not drawn), the “hERG current change (%, negative = inhibition) at 1uM” value came out at 4.83%.

Regarding `CCOc1ccc(-n2nc(C(=O)NCCOC)c3ccccc3c2=O)cc1`, the “hERG current change (%, negative = inhibition) at 1uM” value is 8.4%.

`COc1ccc(-c2cc(C(F)(F)F)n3nc(C(=O)N4CCN5CCCC5C4)cc3n2)cc1OC` (stereo not drawn): the “hERG current change (%, negative = inhibition) at 1uM” value was -16.6%.

As to `CC(=O)Nc1ccccc1NC(=O)C/C(C)=N/NC(=O)Cc1cccc2ccccc12`, the “hERG current change (%, negative = inhibition) at 1uM” value is listed as 15.3%.

Values taken from publication PMC4336329 (PLoS ONE, 2015).
